From the supplement of paper PMC3334620
Whole data set: some 33,000 sequences, median “E-score (-0.5 to 0.5)” near -0.04, cut for the highest 2% near 0.36. Some of the results follow.

Each sequence was assayed against T1, Hmlalpha2 (UniProt P0CY09) (assay: PBM E-score (8-mer binding enrichment) (E-score (-0.5 to 0.5)); higher = stronger / more preferred TF binding; most listed sequences are background and not binding sites). Settings: protein concentration: 200 nM; construct: GST-full length.
T1 sequence: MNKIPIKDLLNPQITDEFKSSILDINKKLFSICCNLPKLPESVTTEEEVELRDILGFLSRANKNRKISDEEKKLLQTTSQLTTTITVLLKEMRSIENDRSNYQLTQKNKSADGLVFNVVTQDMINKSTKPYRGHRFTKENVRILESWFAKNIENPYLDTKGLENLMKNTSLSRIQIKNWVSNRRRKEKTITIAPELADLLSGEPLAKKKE
How it was run: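 Yeast transcription factors carrying a GST tag, as full-length proteins or DNA-binding domains, were produced by PURExpress in vitro transcription/translation. About 100-200 nM protein was applied to universal all-10-mer Agilent arrays, double-stranded by primer extension on fresh or once-stripped slides. Bound protein was detected with fluorescent anti-GST, and scans were normalised with masliner. The Universal PBM Analysis Suite gave each ungapped eight-base word, pooled with its reverse complement, an E-score, a modified Wilcoxon-Mann-Whitney statistic.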

Sequence | PBM E-score
GGCGTGAA | -0.0431
ACTGAGCG | -0.168
GCGTATCA | 0.0411
AAGTCCAC | -0.168
CAGCGGCA | -0.151
ATTTGCGA | 0.0385
CCTCCACG | -0.114
AAGGGGAG | -0.287
CGGGTAGA | -0.0547
CATCACCA | -0.0675
CTGCAGTA | -0.0972
ACCTTTTC | -0.168
TCTAAAAA | 0.0747
TGAAAGAA | 0.129
CCCGCCGC | -0.279
GTTTGACA | 0.303
ACGCACGT | 0.192
ACGATAGA | -0.0187
CCATGTTC | 0.275
AGATCCGG | -0.187
GACGCGAA | -0.0793
AAAAGAAT | 0.103

Sequence | PBM E-score
TACGACAA | 0.119
CGCGTACC | 0.144
ACAGGTAT | 0.125
AGAAGATG | -0.118
ACCACTCC | -0.208
CTACAGTC | 0.0127
ATCGCGGA | -0.302
AGCCTTTA | 0.0848
GTGCGAAC | -0.147
ACATAACG | 0.368
CCTTTATA | -0.0253
CCCCGTGC | -0.158
ATTGCAGG | -0.152
ATTGAAAT | 0.116
AGATGGTG | -0.0243
TTTACAAA | 0.412
CCGGCGCG | -0.162
ATCATCAG | -0.11
AGTATCAA | 0.163
AACAAGCA | 0.253
CGGTTGGA | -0.246
CCGCTTCG | -0.234

Sequence | PBM E-score
CAACGCGA | 0.157
GTTGGCCA | -0.225
GAACGAGA | -0.036
ACCGCGCA | -0.0344
ACGGACGC | -0.134
AAACGTCA | 0.127
GGTGGGCA | -0.186
CCACTACG | 0.0286
GAGACAGA | -0.232
ATTCGGTC | -0.0526
CCACGACA | -0.103
CAGGGAGG | -0.298
ACGCTGGA | -0.199
CTGTTATC | -0.00298
CGTCAACC | 0.0261
GATATTTA | 0.181
TAGTTGCA | -0.00184
CGTGCGGC | -0.282
CAGAAGCG | -0.121
GCGGGTGA | -0.0764
GTTTTAAA | 0.22
GTAATTAC | 0.452

Sequence | PBM E-score
GTGTCCAA | 0.108
ACCGTAGC | -0.193
GCCGCAGC | -0.17
ACCTCATG | 0.00085
GGAGAATA | 0.0952
ACGTAAGG | 0.151
GCCTCGAC | 0.115
ATACACCA | 0.215
ACAACCTG | 0.211
ATAGATAT | 0.0323
AGTGTCGC | -0.00973
AGTGGGAG | -0.193
AGCATACT | 0.0478
ATTTGATA | 0.107
AGATCTAG | -0.152
CTCGTACC | -0.129
CCATACTA | 0.121
TCTACGAA | 0.0456
TCTGCAGA | -0.12
ATTTTCCC | -0.0382
